Earlier results in patent US8889153B2, “Combination of immunomodulator and anti-pathogenic agent” (priority 2008, dated 2014).

System: Punta Toro virus - Adames strain
Conditions: cited from earlier work

NC(=O)c1ncn([C@@H]2O[C@H](CO)[C@@H](O)[C@H]2O)n1 [Ribavirin, 1-(β-D-Ribofuranosyl)-1H-1,2,4-triazol-3-carboxamide]
minimum effective dosage reported in literature, PTV infection (Antimicrob Agents Chemother 32:331-336): 4.7 mg/kg
effect against PTV infection in low dosages (less than […], Sidwell et al. 1988): ineffective
